We go through 27 compounds from PubChem BioAssay AID485344 (National Center for Advancing Translational Sciences (NCATS), 2010).

Molecules are shown by their SMILES. The whole screen tested about 340,000 compounds, of which about 6,900 (2%) were called active. No stated cut-off is given here; in the data, active means inhibition above about 30%; inactive means below that, where a call was filed. The list shows a part of the results, in another mix than the full data. Where no call is shown, the source filed none.

Chain of UniProt P14416 (P14416 whole entry, looked up): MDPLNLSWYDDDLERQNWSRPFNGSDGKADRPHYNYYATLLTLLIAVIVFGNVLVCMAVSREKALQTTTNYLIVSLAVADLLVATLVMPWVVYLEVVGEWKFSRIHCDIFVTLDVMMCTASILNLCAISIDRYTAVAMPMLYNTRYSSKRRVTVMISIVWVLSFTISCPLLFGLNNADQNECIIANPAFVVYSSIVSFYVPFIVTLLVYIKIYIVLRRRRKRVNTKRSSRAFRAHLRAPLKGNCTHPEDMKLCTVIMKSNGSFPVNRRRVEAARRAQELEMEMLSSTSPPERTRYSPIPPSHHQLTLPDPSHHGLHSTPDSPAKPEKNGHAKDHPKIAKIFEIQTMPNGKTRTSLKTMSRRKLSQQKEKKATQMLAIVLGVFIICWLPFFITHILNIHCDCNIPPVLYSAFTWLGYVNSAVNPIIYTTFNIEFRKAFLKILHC

For this experiment, the target named is D(2) dopamine receptor (Homo sapiens) (UniProt P14416). The experiment can be described thus: HTS Assay for Allosteric Antagonists of the Human D2 Dopamine Receptor: Primary Screen for Antagonists. Further: 0% is about no effect. The following applies: HEK293 TREx D2 cells, calcium flux, dopamine EC80; at 10 µM; stronger effect = higher value. Put shortly:
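HEK293 T-REx D2 cells, tet-induced, calcium dye no-wash. Cpd pintool add, 180 s kinetic, then EC80 DA, 180 s kinetic. Ca flux read.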
For orientation: Calcium flux is commonly read through the fluorescence of an indicator in the cells.
What is called inhibition is the relative decrease from the control value, in per cent. For the compound `Cc1ccccc1NC(=S)NC1CC2CCC(C1)N2Cc1ccco1` (configuration not stated), the inhibition is active: 39.1%.
Then `CCCSc1nnc2c(n1)OC(CC)N(C(C)=O)c1ccccc1-2` (configuration not stated), with -0.568%.
Under `Cc1ccc(C)c(NC(=O)CCN2CCN(c3ccccc3F)CC2)c1` stands active: 66.9%.
Then `O=C(CN1C(=O)COc2ccc(S(=O)(=O)N3CCCCC3)cc21)NCCc1ccc(Cl)cc1`, with -1.99%.
For the compound `COc1ccc(CCNC(=O)CSc2nc3ccccc3nc2Cc2ccc(C)cc2)cc1OC`, the inhibition was -12.2%.
Turning to `COc1ccc([N+](=O)[O-])cc1NC(=O)C(C)OC(=O)Cn1[nH]c(=O)c2ccccc2c1=O` (configuration not stated), the inhibition was active: 35.8%.
Then `COc1ccccc1CNC(=O)c1nn(-c2ccc(C)cc2)c(=O)c2c1c1ccccc1n2C`, with -7.05%; and `Cc1cccc(CSc2ncc(Cl)c(C(=O)Nc3sc4c(c3C#N)CCCC4)n2)c1`, with -18.6%.
Turning to `COc1ccccc1NC(=O)CSc1oc(-c2cccs2)nc1S(=O)(=O)c1ccc(C)cc1`, the inhibition worked out at 9.33%.
Under `CCN(CC)c1nc2c(S(=O)(=O)c3ccc(C)cc3)nnn2c2ccsc12` stands 19.4%; under `O=C(NCc1ccccc1)c1cccc(NC(=O)N2CCSc3ncccc32)c1`, -12.9%.
For the compound `Cc1ccc2[nH]c(=O)c3cc(C(=O)N4CCN(c5ccccc5F)CC4)sc3c2c1`, the inhibition stood at 2.64%.
Under `CCC(C)NC(=O)c1sc2nc(C)c(C(=O)Nc3ccc(C)cc3C)c(-c3ccc(Br)cc3)c2c1N` (configuration not stated) stands 20.6%; under `COc1cc(C2NC(=O)N(C)C3=C2C(=O)N(c2ccccc2)C3)ccc1O` (configuration not stated), 7.88%; under `O=C(CSc1nc(-c2ccccc2)cc(=O)[nH]1)Nc1ccccc1F`, 4.29%.
Under `OCC1(CCc2ccccc2)CCN(Cc2ccc3nsnc3c2)CC1` stands active: 36.1%; under `CC1=C(C(=O)Nc2ccc(C)c(C)c2)C2(CCCCCC2)OC1=O`, 12.2%.
As for `Cc1cccn2c3c(c(=O)nc12)C(c1ccc(F)cc1)CC(=O)N3` (configuration not stated), the inhibition stood at 2.66%.
Take `CCCN(C(=O)c1c(C)oc2ncnc(N3CCOCC3)c12)c1ccc(Cl)c(Cl)c1`: the inhibition was 5.22%.
Under `O=S(=O)(NCC(c1ccco1)N1CCN(c2ccccc2)CC1)c1ccccc1` (configuration not stated) stands 19.6%; under `CCOc1ccc(Cn2nnc(C(=O)Nc3ccc(Cl)cc3)c2N)cc1`, -10.2%.
As for `COc1ccccc1CNC(=O)C1CCN(C(=O)c2sccc2-n2cccc2)CC1`, the inhibition was -10.6%.
Consider `CN(C1CCCCC1)S(=O)(=O)c1ccc2c(c1)c(=O)c(C(=O)NCc1ccc(F)cc1)cn2C`, for which the inhibition was -6.55%.
In the case of `COc1ccccc1CNC(=O)c1cc2c(-c3ccc(Cl)cc3)nn(C)c2s1`, the inhibition is -7.04%.
Under `CCn1ccc2c(OCC(=O)Nc3ccc(C(C)=O)cc3)cccc2c1=O` stands -28.2%; under `CCSc1oc(-c2cccs2)nc1S(=O)(=O)c1ccc(Br)cc1`, -0.745%; under `NC(=O)CSc1nc2c(oc3ccccc32)c(=O)n1Cc1ccccc1`, 11.4%.
